In publication PMC11995724, “Antibiotic target discovery by integrated phenotypic and activity-based profiling of electrophilic fragments” (Cell chemical biology, 2025):
Hit rate of the full screen: of about 3,200 compounds, about 110 (3.4%) showed an effect of 50% or more. Some of the results follow.

What follows are molecules tested on T1, V. cholerae SAD30. Details: relative growth, OD600, LB; 25 µM; inhibitor.
T1 construct: SAD30
Design: species or system S. aureus MSSA476 (TSB) or V. cholerae SAD30 (LB); 384-well bacterial growth screen at 25 uM, OD600 relative to DMSO control

Row | Structure (SMILES) | % of control remaining [%]
1 | COc1ccc(NC(=O)C(C#N)=CC=Cc2ccccc2)cc1Cl [8-M18, N-(3-chloro-4-methoxyphenyl)-2-cyano-5-phenylpenta-2,4-dienamide] | 75.5269
2 | O=C(CCl)Nc1nccc(Cl)n1 [6-C19, 2-chloro-N-(4-chloropyrimidin-2-yl)acetamide] | 88.7288
3 | Cc1ccccc1NC(=O)C(C#N)=Cc1ccccc1Cl [8-N05, 3-(2-chlorophenyl)-2-cyano-N-(2-methylphenyl)prop-2-enamide] | 76.4786
4 | CCn1cc(CN(C)C(=O)C(C)Cl)nn1 (stereo not shown) [6-L22, 2-chloro-N-[(1-ethyl-1H-1,2,3-triazol-4-yl)methyl]-N-methylpropanamide] | 97.0708
5 | COCCn1c(N)c(C(=O)CCl)c(=O)[nH]c1=O [10-N12, 6-amino-5-(2-chloroacetyl)-1-(2-methoxyethyl)-1,2,3,4-tetrahydropyrimidine-2,4-dione] | 98.344
6 | O=C(CCl)Nc1ccccc1S(=O)(=O)C(F)F [4-B18, 2-chloro-N-(2-difluoromethanesulfonylphenyl)acetamide] | 103.17
7 | C=CC(=O)Nc1ccc(OCCC)c(C)c1 [1-C20, N-(3-methyl-4-propoxyphenyl)prop-2-enamide] | 81.9133
8 | CC(C)NC(=O)C(C#N)=Cc1ccc(F)cc1 [9-I09, 2-cyano-3-(4-fluorophenyl)-N-(propan-2-yl)prop-2-enamide] | 88.9871
9 | Cc1ccc(C=C(C#N)C(=O)Nc2ccc(N3CCOCC3)cc2)s1 [8-A06, 2-cyano-3-(5-methylthiophen-2-yl)-N-[4-(morpholin-4-yl)phenyl]prop-2-enamide] | 91.7063
10 | C=CC(=O)N1CCC(c2nnc(C)o2)CC1 [3-N04, 1-[4-(5-methyl-1,3,4-oxadiazol-2-yl)piperidin-1-yl]prop-2-en-1-one] | 103.558
11 | COC1CCN(c2ccc(F)cc2CN(C)C(=O)C(C)Cl)CC1 (stereo not shown) [7-I11, 2-chloro-N-{[5-fluoro-2-(4-methoxypiperidin-1-yl)phenyl]methyl}-N-methylpropanamide] | 64.8934
12 | Cl.O=C(CCl)c1ccncc1F [10-I09, 2-chloro-1-(3-fluoropyridin-4-yl)ethan-1-one hydrochloride] | 0
13 | O=C1C=CC(=O)N1c1ccccc1F [10-D17, 1-(2-fluorophenyl)-2,5-dihydro-1H-pyrrole-2,5-dione] | 26.1835
